Test results reported in PubChem BioAssay (NCATS).
Where “and” joins values, the source holds several entries; their conditions need not be identical. Equal entries are not always repeated. Inconclusive results, whose numbers are uncertain, are shown with a selection of clear calls. For some of these results: Where the call is inconclusive, the potency comes from a doubtful curve fit. Calls of active or inactive are those of the source. Unless noted, the call rests on the fitted dose curve; in most records, active means well fitted curve in the direction sought with a large enough effect; inconclusive means small, poorly fitted or top-dose-only effect, or another doubt; inactive means no such curve, though single readings can be large; an effect the other way counts as inactive or inconclusive.

Experiments:
[1] = Cell Viability - BJ (AID 421; calls by dose curve;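 further: potency means the concentration at half of the fitted maximal effect; cells exposed to compound for 40 hours at 37 °C before readout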); conditions: BJ fibroblast viability, qHTS
Method in brief: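 Luminescent ATP signal (CellTiter-Glo, 20 min at room temperature) served as the read-out of viable BJ cells after 40 hours of compound treatment. Responses were scaled between DMSO and 100 uM tamoxifen, and AC50 values were obtained by Hill modeling.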

[2] = Cellular Toxicity (caspase-3) SHSY5Y (AID 657); conditions: SH-SY5Y caspase-3 activation; series mostly up to 91.7 µM;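 further: cells exposed to compound for 16 hours at 37 °C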
Method in brief: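 Luminescent caspase-3/7 readout (aminoluciferin release) in SH-SY5Y cells after 16 h compound exposure in complete medium. Activity scaled between DMSO basal and 10 uM staurosporine as 100%; concentration-response fitted to Hill equation for AC50.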

[3] = MultiTox-Fluor Cytotoxicity Assay - LYMP1-001 - Live Cells (AID 947); conditions: LYMP1-001 lymphoblastoid cells, live-cell protease fluorescence viability; series mostly up to 92.2 µM; further: potency means the concentration at half of the fitted maximal effect
[4] = MultiTox-Fluor Cytotoxicity Assay - LYMP1-002 - Dead Cells (AID 960); conditions: LYMP1-002 lymphoblastoid cells, dead-cell protease fluorescence; cytotoxicity (dead cells): at 46.1 µM (top of the series); further: nearly all actives have a fitted effect of over 60% in size; further: potency means the concentration at half of the fitted maximal effect;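 on cytotoxicity (dead cells): 0% = DMSO and 100% = tetraoctylammonium bromide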
Method in brief: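 Acute cytotoxicity in a human lymphoblastoid line is scored as rising dead-cell protease signal after 16 hr exposure at 37 C, measured fluorometrically (485/520).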

[5] = qHTS assay to identify small molecules that stimulate interleukin-8 (IL-8) secretion (AID 651758; active means well fitted activation curve with a large enough effect in the signal ratio; inconclusive means small, poorly fitted or top-dose-only effect, or effect the other way, or a change in a side signal; the % refers to the signal ratio; further: 0% is about no effect); conditions: HTRF ratio (665/615); activation: at 92.2 µM (top of the series)
Method in brief: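 THP-1, 2000 cells/well; cpd 16 h, 37 C; add cryptate + XL665 anti-IL-8 Abs; RT 1-3 h; TR-FRET read.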

[6] = qHTS assay for small molecule antagonists of the retinoid-related orphan receptor gamma (ROR-gamma) signaling pathway - cell viability counter screen (AID 720652; active means well fitted curve in the direction sought with a large enough effect in the repeat runs; inconclusive means weak or mixed curves; inactive means no such curve, though single readings can be large; an effect the other way counts as inactive or inconclusive;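 further: potency means the concentration at half of the fitted maximal effect; compound exposure lasted 16 hr before ATP read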); conditions: RORgamma reporter cell line viability counter screen; series mostly up to 92.2 µM
Method in brief: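 Cytotoxicity is quantified via intracellular ATP (CellTiter-Glo luminescence) in doxycycline-induced CHO ROR response element-luciferase reporter cells treated with compound for 16 hr at 37 C, 5% CO2.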

[7] = Cell Viability - NIH 3T3 (AID 541); conditions: NIH 3T3 cell viability, qHTS; activity change, negative = cytotoxicity: at 92.2 µM (top of the series);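 further: plate controls were DMSO alone for no effect and tamoxifen positive control for full effect; nearly all actives have a fitted effect of over 25% in size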
Method in brief: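 AC50 values reflect concentration-dependent loss of intracellular ATP in NIH 3T3 cells after 40 hr treatment in complete culture medium, quantified by luciferase-based luminescence.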

[8] = MultiTox-Fluor Cytotoxicity Assay - LYMP1-003 - Dead Cells (AID 961); conditions: LYMP1-003 lymphoblastoid cells, dead-cell protease fluorescence; series mostly up to 92.2 µM;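 further: 0% = DMSO and 100% = tetraoctylammonium bromide; nearly all actives have a fitted effect of over 70% in size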
Method in brief: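 Human lymphoblastoid LYMP1-003 cells (2500/well) were treated with compounds for 16 hr at 37 C in complete medium. Dead-cell protease release was read by bis-AAF-R110 fluorescence (Ex/Em 485/520). AC50 came from Hill fits, normalized to DMSO and 15 uM tetraoctylammonium bromide.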

[9] = biological target: Glucocorticoid receptor (Homo sapiens) (UniProt P04150); test: qHTS assay for small molecule agonists of glucocorticoid receptor signaling (AID 588532; active means well fitted curve in the direction sought with a large enough effect in the signal ratio, with a control signal flat; inconclusive means small, poorly fitted or top-dose-only effect, or a change in a side signal; inactive means no such curve, though single readings can be large or run the other way; the % refers to the signal ratio;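 further: 100% = dexamethasone at 0.1 µM and 0% = DMSO only wells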); conditions: HeLa MMTV-bla, beta-lactamase ratio, agonist, 18 h; activation: active compounds read high, percent of dexamethasone control, DMSO zero
Method in brief: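 Stimulation of a glucocorticoid response element-driven beta-lactamase gene was measured in HeLa cells. Responses were scaled between DMSO basal and 0.1 uM dexamethasone, then fitted for half-maximal stimulation.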

[10] = biological target: Glucocorticoid receptor (Homo sapiens) (UniProt P04150); test: qHTS assay for small molecule antagonists of glucocorticoid receptor signaling (AID 588533; active means well fitted inhibition curve with a large enough effect in the signal ratio, with a control signal flat, not every such curve was filed as active; inconclusive means small, poorly fitted or top-dose-only effect, or effect the other way, or a change in a side signal; the % refers to the signal ratio;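 further: cells stimulated with 2 nM dexamethasone as agonist; on the % scale 0 is the no-effect control and ±100 the full control effect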); conditions: HeLa MMTV-bla, GRE beta-lactamase ratio, antagonist mode, 18 h; activity change, negative = inhibition: at 76.8 µM (top of the series)
[11] = Cell Viability - Jurkat (AID 426;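 active means dose-dependent loss of cell ATP signal giving a full or clear fitted curve, ranked by lower potency value; inconclusive means weak partial curve or response only at the top dose; inactive means no loss of viability signal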;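 further: potency means the concentration at half of the fitted maximal effect; cells exposed to compound for 40 hours at 37 °C before ATP read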); conditions: qHTS
Method in brief: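 Seed 5000 Jurkat E6-1 cells/well; add compound; incubate 40 hr at 37 °C; add CellTiter-Glo; wait 20 min at room temperature; read luminescence. Fit concentration-response with Hill equation for AC50.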

[12] = Cell Viability - Mesenchymal (AID 546); conditions: mesenchymal cells viability, qHTS; activity change, negative = cytotoxicity: at 91.7 µM (top of the series);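 further: cells exposed to compound for 40 hours before reading; 0% = DMSO only and -100% = 100 µM tamoxifen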
Method in brief: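 Normal human renal glomerulus-derived kidney mesenchymal cells, 1000 per well in complete medium, were treated with compounds for 40 hr at 37 °C. Viability was read as intracellular ATP by CellTiter-Glo luminescence; AC50 values came from Hill-equation fits of qHTS concentration-response data.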

[13] = Cell Viability - LYMP2-013 (AID 970); conditions: LYMP2-013 lymphoblastoid cells viability; activity change, negative = cytotoxic: at 92.2 µM (top of the series);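 further: cells exposed to compound for 24 h at 37 °C; 0% = DMSO only and full inhibition = tetraoctylammonium bromide control; nearly all actives have a fitted effect of over 55% in size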
Method in brief: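 Acute toxicity was measured in human lymphoblastoid cells (2500/well) exposed to compound titrations for 24 hr, with ATP luminescence (CellTiter-Glo) as read-out and AC50 fitted by Hill equation.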

[14] = biological target: Retinoic acid receptor RXR-alpha (Homo sapiens) (UniProt P19793); test: qHTS assay for small molecule agonists of retinoid X receptor alpha signaling (AID 588544; calls by dose curve;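 further: 0% = DMSO basal wells and 100% = reference agonist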); conditions: HEK293T RXRa-UAS-bla, beta-lactamase reporter, 18 h; activation: at 76.7 µM (top of the series) unless noted
[15] = biological target: Thyroid hormone receptor beta (Homo sapiens) (UniProt P10828); test: qHTS assay for small molecule antagonists of thyroid hormone receptor beta signaling (AID 588547; active means well fitted inhibition curve with a large enough effect in the signal ratio, with a control signal flat, not every such curve was filed as active; inconclusive means small, poorly fitted or top-dose-only effect, or effect the other way, or a change in a side signal; the % refers to the signal ratio;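 further: cells stimulated with 0.4 nM T3 agonist during compound exposure; on the % scale 0 is the no-effect control and ±100 the full control effect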); conditions: TR-UAS-bla HEK293, beta-lactamase ratio, antagonist mode, 18 h
Method in brief: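 TR-UAS-bla GripTite HEK293 cells in 2% charcoal/dextran FBS medium were preincubated 4 h at 37 C, given compound (0.59 nM to 92 uM) plus 0.4 nM T3 (final) for 18 h, then CCF4 for 2 h at RT; Hill fit gave IC50.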

[16] = qHTS assay for small molecule agonists of the antioxidant response element (ARE) signaling pathway (AID 651741; active means well fitted activation curve with a large enough effect in the signal ratio; inconclusive means small, poorly fitted or top-dose-only effect, or effect the other way, or a change in a side signal; the % refers to the signal ratio; further: % of control where 0% means no effect); conditions: HepG2 ARE-bla reporter, beta-lactamase FRET ratio, 16 h; activation: at 96 µM (top of the series) unless noted
Method in brief: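 ARE-bla HepG2 cells (beta-lactamase reporter under ARE control) were plated at 2,000 cells/well, preincubated 5 h at 37 C/5% CO2, then treated with DMSO-dissolved compounds for 16 h at 37 C; LiveBLAzer B/G FRET substrate added, fluorescence read after 2 h at room temperature.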

[17] = Cell Viability - LYMP2-026 (AID 989); conditions: LYMP2-026 lymphoblastoid cell viability, qHTS; series mostly up to 92.2 µM;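 further: cells exposed to compound for 24 h at 37 °C; on the % scale 0 is the no-effect control and ±100 the full control effect; nearly all actives have a fitted effect of over 50% in size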
Method in brief: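 Concentration-dependent loss of intracellular ATP in human lymphoblastoid cells after 24 hr at 37 C, quantified by luciferase luminescence. AC50 derived from standard Hill equation.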
Tags describe the fitted curve by direction and shape.

UniProt P04150, sequence (P04150 whole entry, looked up): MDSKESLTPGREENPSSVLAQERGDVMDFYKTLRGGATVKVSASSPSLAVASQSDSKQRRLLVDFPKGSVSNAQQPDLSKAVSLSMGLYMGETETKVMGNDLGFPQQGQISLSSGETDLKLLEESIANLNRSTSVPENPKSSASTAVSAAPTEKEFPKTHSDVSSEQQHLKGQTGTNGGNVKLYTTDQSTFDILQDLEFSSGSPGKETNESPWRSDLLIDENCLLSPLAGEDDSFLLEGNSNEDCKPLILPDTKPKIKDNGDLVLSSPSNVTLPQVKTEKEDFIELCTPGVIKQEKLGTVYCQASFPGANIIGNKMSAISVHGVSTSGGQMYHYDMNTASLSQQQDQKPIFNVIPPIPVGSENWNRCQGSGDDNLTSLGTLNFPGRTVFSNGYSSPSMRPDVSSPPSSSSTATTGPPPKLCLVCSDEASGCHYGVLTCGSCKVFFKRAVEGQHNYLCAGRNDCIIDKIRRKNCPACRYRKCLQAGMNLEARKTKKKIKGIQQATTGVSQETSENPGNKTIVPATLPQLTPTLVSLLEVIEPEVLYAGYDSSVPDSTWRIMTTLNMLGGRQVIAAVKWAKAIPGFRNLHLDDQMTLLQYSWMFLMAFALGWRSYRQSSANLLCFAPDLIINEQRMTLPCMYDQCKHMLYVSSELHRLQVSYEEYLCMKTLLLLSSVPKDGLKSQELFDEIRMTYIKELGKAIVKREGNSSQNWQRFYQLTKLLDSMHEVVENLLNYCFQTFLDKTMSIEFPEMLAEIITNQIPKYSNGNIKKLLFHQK
UniProt P19793, sequence (P19793 whole entry, looked up): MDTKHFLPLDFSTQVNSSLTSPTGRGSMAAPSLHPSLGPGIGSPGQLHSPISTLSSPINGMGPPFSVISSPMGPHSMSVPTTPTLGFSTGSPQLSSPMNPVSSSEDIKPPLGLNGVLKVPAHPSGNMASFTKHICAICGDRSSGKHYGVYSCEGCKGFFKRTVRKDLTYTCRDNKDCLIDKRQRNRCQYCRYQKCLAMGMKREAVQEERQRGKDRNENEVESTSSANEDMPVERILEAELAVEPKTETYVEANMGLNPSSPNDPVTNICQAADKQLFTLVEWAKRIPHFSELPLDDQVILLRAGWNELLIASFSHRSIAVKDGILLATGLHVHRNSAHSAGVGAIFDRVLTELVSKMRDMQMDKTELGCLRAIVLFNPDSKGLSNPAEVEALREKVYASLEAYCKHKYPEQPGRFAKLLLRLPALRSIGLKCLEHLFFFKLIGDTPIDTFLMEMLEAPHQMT
UniProt P10828, sequence (P10828 whole entry, looked up): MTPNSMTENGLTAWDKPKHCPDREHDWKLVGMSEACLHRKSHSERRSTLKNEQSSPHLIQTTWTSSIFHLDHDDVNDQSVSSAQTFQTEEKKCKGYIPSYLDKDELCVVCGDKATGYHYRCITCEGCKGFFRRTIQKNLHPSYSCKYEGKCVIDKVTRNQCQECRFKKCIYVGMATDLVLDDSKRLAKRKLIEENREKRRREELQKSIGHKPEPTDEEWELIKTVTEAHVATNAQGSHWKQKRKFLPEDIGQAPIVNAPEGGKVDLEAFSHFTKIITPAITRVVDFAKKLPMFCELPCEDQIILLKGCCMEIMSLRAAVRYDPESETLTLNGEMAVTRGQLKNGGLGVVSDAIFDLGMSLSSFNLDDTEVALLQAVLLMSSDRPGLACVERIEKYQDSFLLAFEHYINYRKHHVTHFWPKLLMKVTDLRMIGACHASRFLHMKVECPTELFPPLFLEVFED

O=C(O)/C=C/C(=O)O
inactive: Potency [1] > 92 µM | Potency [2] | Potency [5]
inconclusive: Potency [3] 31.6 µM [cytotoxic, full curve, poor fit] | Potency [4] 251 nM [cytotoxic, full curve] | Potency [6] 75 µM [rising, partial curve, poor fit]

CC(=O)OC1CC(C)OC(C)O1 (stereo not given)
inactive: Potency [1] > 92 µM | Potency [8] | activation [9] 0.225% and -13.7% | Potency [10]
inconclusive: activity change, negative = cytotoxicity [7] -38.1% | activation [5] 12.7%

CCCCC(CC)CO (stereo not given)
inactive: Potency [11] > 92 µM | activity change, negative = cytotoxicity [7] 8.56% | Potency [12] | Potency [13] | Potency [10] | Potency [14] | activity change % (negative = inhibition) [15] -6.25% | Potency [16] | Potency [5]

NS(=O)(=O)O
inactive: Potency [1] > 92 µM | Potency [4] | Potency [17] | Potency [10]
